This is one part of the list. Many values rest on one well or one pass, so single values are uncertain.
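Further: cells treated in 1,536-well plates, then fixed and DAPI-stained, with nuclei counted from automated high-throughput microscope images.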

The test system of the assay is COLO829. Description: cell count relative to DMSO control; melanoma cells; higher = more viable cells. To be noted: library dose: standard library concentration; 72 h; first compound 2 µM.
`CCCCCCCCCCCCCCCCCCOP(=O)([O-])OC1CC[N+](C)(C)CC1` [Perifosine] + CCCS(=O)(=O)Nc1ccc(F)c(C(=O)c2c[nH]c3ncc(Cl)cc23)c1F [PLX4720] (partner dose 0.4 µM): the cell count is 87.8%.

In turn, `CCCCCCCCCCCCCCCCCCOP(=O)([O-])OC1CC[N+](C)(C)CC1` [Perifosine] + Nc1ncn([C@H]2C[C@H](O)[C@@H](CO)O2)c(=O)n1 [decitabine] (partner dose 0.5 µM) registered a cell count of 68.3%.

For the compound `Cn1sc(=O)n(Cc2ccccc2)c1=O` + CNC(=O)c1cc(Oc2ccc(NC(=O)Nc3ccc(Cl)c(C(F)(F)F)c3)cc2)ccn1 [sorafenib] (partner dose 2 µM), the cell count came to 118%.

The record behind these values is the supplement of paper PMC4604168 (melanoma cell lines).
